The supplement of paper PMC11417369
± gives the standard deviation of the averaged measurements. The list shows a part of the results.

The sequences below were run on PfAP2-LT AP2 domain (GST-tagged) (assay: gcPBM binding intensity (ln(normalized median fluorescence intensity)); higher = stronger DNA binding).
How it was run: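 An Agilent 4 × 180k array carrying primer-extended double-stranded 36-bp intergenic genomic probes and negative controls received GST-tagged P. falciparum DNA-binding domains expressed in E. coli, about 25 μg on average, for 1 h. The binding buffer contained 1× PBS, 1% milk, 0.2 mg/ml BSA, 0.5% salmon testes DNA and 0.03% Triton X-100. Binding intensity is the top Masliner-normalised natural-log median intensity across replicate spots of either probe orientation, read after Alexa488 anti-GST antibody staining and a 488 nm scan.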
“AATTTTTTAAATGTGTGTACATATTATTTAAATAAT [XGTACX_site5967]” was tested, and the “gcPBM binding intensity (ln)” value was 8.75 ± 0.47.
For “AAATACTGATTTGGTTGTACATGTGCACTATATAAC [XGTACX_site3795]”, the “gcPBM binding intensity (ln)” value was 9.04 ± 0.42.
With “AAAAATTAAATGTACACACACCTTAAACAATGTCAT [CACACA_site6958]” the “gcPBM binding intensity (ln)” value was 9.23 ± 0.33.
For “TATAATCTAACATAATGTACATGTATATGCACTTTA [XGTACX_site369]”, the “gcPBM binding intensity (ln)” value was 8.75 ± 0.49.
“ATAAATATATTTATATGTACATATAATTTTACATAT [XGTACX_site5440]” was tested, and the “gcPBM binding intensity (ln)” value was 8.96 ± 0.49.
For “ATATATATATCTAATTGTACATATTTTATAAATAAG [XGTACX_site4840]”, the “gcPBM binding intensity (ln)” value was 8.45 ± 0.35.
For “AGACAAAATGTTTGAAGTACTTTTTATCAAATTAAA [XGTACX_site8885]”, the “gcPBM binding intensity (ln)” value was 8.45 ± 0.54.
In the case of “AAAAAAAAAAAACACACACACACACCCATACATACA [CACACA_site707]”, the “gcPBM binding intensity (ln)” value is reported as 10.4 ± 0.14.
In the case of “ATATATATTTATATTTGTACGAATTAAAATTTTTTA [XGTACX_site5200]”, the “gcPBM binding intensity (ln)” value is reported as 8.45 ± 0.42.
“TTATCAATAAAATGCACACACTGTAATATTATTAAA [CACACA_site6055]” was tested, and the “gcPBM binding intensity (ln)” value was 8.99 ± 0.3.
With “ATTTAAAACAAAAGTAGTACGTCTAATAAATTCAAC [XGTACX_site4344]” the “gcPBM binding intensity (ln)” value was 8.74 ± 0.46.
With “ATAGCTTTTATTTAAAGTACAAAAAGGATGTTGAAA [XGTACX_site3810]” the “gcPBM binding intensity (ln)” value was 8.46 ± 0.44.
“TTAATTATTATATAAGTGCAATAATAAAAAGTTGTA [GTGCAC_site9552]” was tested, and the “gcPBM binding intensity (ln)” value was 8.56 ± 0.39.
For “TTGTTAATAAATAAATAAATAAATATATTTATATAT [GTGCAC_negctrl_site271]”, the “gcPBM binding intensity (ln)” value was 8.26 ± 0.4.
In the case of “TGATTTTTTCATATTCTACACACGTGAACAAATGTG [CACACA_site8987]”, the “gcPBM binding intensity (ln)” value is reported as 8.94 ± 0.37.
“TTAAGAATATCTTAGAGTACATTTTATCATCTTAAA [XGTACX_site8298]” was tested, and the “gcPBM binding intensity (ln)” value was 8.16 ± 0.42.
In the case of “TCTTTTTAAATTACTATAATACATTCATAAATTATA [GTGCAC_negctrl_site448]”, the “gcPBM binding intensity (ln)” value is reported as 8.44 ± 0.46.
For “TGTTGATTTCTCAAATGTACTTTACTTTTCTTCAGA [XGTACX_site7916]”, the “gcPBM binding intensity (ln)” value was 8.59 ± 0.47.
With “AATTTATTTTTTTAATGTACATATGGTATAAATATA [XGTACX_site8012]” the “gcPBM binding intensity (ln)” value was 8.53 ± 0.38.
For “TTTTTTTTTTTTAATTGTACATTTTATATAAACTTT [XGTACX_site6806]”, the “gcPBM binding intensity (ln)” value was 8.63 ± 0.68.
With “AATATATATATATGTACACACTCCAATACATATACA [CACACA_site2682]” the “gcPBM binding intensity (ln)” value was 9.01 ± 0.38.
“TATATGTATGTATGTACACACAAAAAATGGAATATA [CACACA_site3717]” was tested, and the “gcPBM binding intensity (ln)” value was 9.27 ± 0.49.
“AGGGAATAAGTAAGGTGTACATAATTATGTTACTTT [XGTACX_site6152]” was tested, and the “gcPBM binding intensity (ln)” value was 8.95 ± 0.38.
With “TTTTTTTATTTTATAAAGCAAAAATAAGAATGAAAT [XGTACX_negctrl_site270]” the “gcPBM binding intensity (ln)” value was 8.12 ± 0.49.
“AAAAATTAAATAAATTTACACACTAATAATTACATA [CACACA_site8260]” was tested, and the “gcPBM binding intensity (ln)” value was 8.56 ± 0.46.
In the case of “AAATATATTTTACATTGTACATGAATAAACTATAAA [XGTACX_site2080]”, the “gcPBM binding intensity (ln)” value is reported as 8.51 ± 0.38.
In the case of “AAAAATATGTCCATGAAAAGGATAGGCAGGTAATCA [XGTACX_negctrl_site93]”, the “gcPBM binding intensity (ln)” value is reported as 9.03 ± 0.47.
ACGTTAAAATATTGGGTGCTAACACAATAAAAATAA was tested, and the “gcPBM binding intensity (ln)” value was 8.85 ± 0.58.
With “TACAATTTTTTAAATGCACACAAAAGGAATAAATAA [CACACA_site8075]” the “gcPBM binding intensity (ln)” value was 8.81 ± 0.4.
With “TAATATATGTATTGCACACCTATAACCATTATTTCT [CACACA_site1498]” the “gcPBM binding intensity (ln)” value was 9.01 ± 0.45.
With “AAAAGCAAGTTCCAGGGTACATATATATGAAAAAAC [XGTACX_site2408]” the “gcPBM binding intensity (ln)” value was 9.04 ± 0.45.
For “TATATAGGTATCATTACACACATGTATACTTATTTG [CACACA_site7864]”, the “gcPBM binding intensity (ln)” value was 9.24 ± 0.33.
“CATATAAATAAATACACACACACACGCCTTATAATT [CACACA_site7830]” was tested, and the “gcPBM binding intensity (ln)” value was 10.19 ± 0.078.
In the case of “TATTTAAGAATATGAAGTACATATATTATTTAAAAA [XGTACX_site7897]”, the “gcPBM binding intensity (ln)” value is reported as 8.31 ± 0.49.
With “CCTAAAAAAAAGAAATGATATACATATGTATATATA [GTGCAC_negctrl_site100]” the “gcPBM binding intensity (ln)” value was 8.69 ± 0.39.
In the case of “TTTTTCTTTCTCTATTGTACACATGGAAACACATAA [XGTACX_site4601]”, the “gcPBM binding intensity (ln)” value is reported as 8.72 ± 0.4.
“AAATATATAAAATATACACACAGTAATATATATATA [CACACA_site1385]” was tested, and the “gcPBM binding intensity (ln)” value was 9.11 ± 0.4.
In the case of “TCTTGTTTTCAAATATGTACATAGAATAGACATTTT [XGTACX_site684]”, the “gcPBM binding intensity (ln)” value is reported as 8.51 ± 0.44.
In the case of “ATAAAATGAACAAACACACACACATATATATATATA [CACACA_site2402]”, the “gcPBM binding intensity (ln)” value is reported as 10.2 ± 0.13.
In the case of “TATATATAAATATTCAGTACATAGTATTATTAAGTA [XGTACX_site1980]”, the “gcPBM binding intensity (ln)” value is reported as 8.64 ± 0.54.
“AAGTTTTATTTAAATTGTACTAAAATTTTTATATTA [XGTACX_site7065]” was tested, and the “gcPBM binding intensity (ln)” value was 8.35 ± 0.5.
For “TCTCAAGTTGTTAAAAAATAAAAACAATAAATCTAA [CACACA_negctrl_site165]”, the “gcPBM binding intensity (ln)” value was 8.38 ± 0.49.
In the case of “TACAAAAAAAAAAAATAGATAAAATAATAATCAAAT [TGCATGCA_negctrl_site524]”, the “gcPBM binding intensity (ln)” value is reported as 8.57 ± 0.64.
In the case of “ATATATTGAACATATTGTACATTTTGTTAATATTTT [XGTACX_site7622]”, the “gcPBM binding intensity (ln)” value is reported as 8.7 ± 0.43.
For “TGAATATTCCTATGCACACAAATTAAAATACATAAT [CACACA_site4403]”, the “gcPBM binding intensity (ln)” value was 9.08 ± 0.38.
For “ACAAATTTATACTTAAAACACACGTAATCATTTATA [CACACA_site1636]”, the “gcPBM binding intensity (ln)” value was 8.7 ± 0.38.
With “TAAAATAATTTATGCATACACACATATATATATATA [CACACA_site4021]” the “gcPBM binding intensity (ln)” value was 9.5 ± 0.13.
“AAGAAGAAATGCTTTGCATGCAAATTTTATGCCAAC [TGCATGCA_site721]” was tested, and the “gcPBM binding intensity (ln)” value was 8.92 ± 0.35.
“CAATTTTTTAAATGCACACAAAAGGAATAAATAAAT [CACACA_site544]” was tested, and the “gcPBM binding intensity (ln)” value was 8.94 ± 0.38.
In the case of “AACAATTGGAATAACGCATGCATTTATAATATAGAA [TGCATGCA_site298]”, the “gcPBM binding intensity (ln)” value is reported as 9.05 ± 0.43.
With “TAAACAAAAAGGAAGAGTACTTGTAAAATTTGTAAA [XGTACX_site3003]” the “gcPBM binding intensity (ln)” value was 8.7 ± 0.49.
With “ATATACATATCATGTAGTACAATTTTTTTACTTTTT [XGTACX_site7988]” the “gcPBM binding intensity (ln)” value was 8.62 ± 0.46.
With “TAAAAAAATAAAATTACACACATATATAGATATATA [CACACA_site7273]” the “gcPBM binding intensity (ln)” value was 8.75 ± 0.34.
With “CACTTTTTTTAAATGTGTACGTATATGAAAATATCA [XGTACX_site4854]” the “gcPBM binding intensity (ln)” value was 8.52 ± 0.35.
“TTATATTTCTTGAAGGGTACATACCATTATTTTTAA [XGTACX_site1159]” was tested, and the “gcPBM binding intensity (ln)” value was 8.43 ± 0.45.
For “ATATATTTATATATTACACACAATATTGGAGACATA [CACACA_site931]”, the “gcPBM binding intensity (ln)” value was 8.93 ± 0.4.
